About 60 (0.1%) of roughly 46,000 compounds were called active. Inconclusive results (about 3%) are left out. Calls follow the shape of the dose curve; as a rule, active = well fitted inhibition curve with a large enough effect; inconclusive = small, poorly fitted or top-dose-only effect; inactive = no such curve, though single readings can be large or run the other way. Some of the results follow.
Experiment: Primary qHTS assay for Inhibitors of ovarian cancer metastasis using an organotypic tumor microenvironment (TME) model. Also: nearly all actives have a fitted effect of over 65% in size.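 As to activity change, negative = inhibition: plate controls were DMSO wells for no effect and tomatine positive control wells for full effect.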
Details: SKOV3ip1-GFP adhesion/invasion on 3D omental model, fluorescence; series mostly up to 45.8 µM; activity change, negative = inhibition: at the top concentration
Procedure, shortened: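 Adhesion/invasion was scored as fixed GFP-labeled SKOV3ip1 cell counts (488/509 nm), normalized to DMSO and tomatine controls. Cancer cells in serum-free medium, with four compound doses (0.36-46 umol/L), sat 2 hr at RT then 16 hr at 37 C on a 48 hr fibroblast/mesothelial/ECM culture.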

outcome, inactive:
CCN(CC)C(=O)Cn1c(=O)n(-c2ccc(OC)cc2OC)c(=O)c2c(C)c(C(=O)N(CC)CC)sc21
COc1ccc(OC)c(NC(=O)Cn2ccc3ccccc3c2=O)c1
CCN(CC)CCCNC(=O)c1cn(CC)c2ccc(S(=O)(=O)N3CCc4ccccc4C3)cc2c1=O
Cc1cc(C)c2nc(N(Cc3cccnc3)C(=O)c3ccc(S(=O)(=O)N(C)C)cc3)sc2c1
CCN1CCN(c2cc3c(cc2F)c(=O)c(S(=O)(=O)c2ccc(OC)cc2)cn3CC)CC1
COc1ccc(C2CC(=O)N(Cc3ccc(F)cc3)c3ccccc3S2)cc1 (configuration not stated)
COc1cccc(C(=O)NCC(=O)OCc2cc(=O)n3c(C)csc3n2)c1
CC1=C(C(=O)Nc2cccnc2)C(c2cccc(F)c2)n2nc(SCc3ccccc3)nc2N1 (configuration not stated)
CCCCNC(=O)c1ccc2c(c1)NC(=O)C(CS(=O)(=O)Cc1cccc(C)c1)N2 (configuration not stated)
COc1ccc(CNC(=O)c2nc(SC(C)C)ncc2Cl)cc1
O=c1c2cn[nH]c2nc(SCc2cccc(Br)c2)n1-c1ccc(Cl)cc1
CCOc1ccc(CCNC(=O)CCc2c(C)nc3c(-c4ccccc4)c(C)nn3c2C)cc1OCC
CCOC(=O)c1c(-c2ccccc2)csc1NC(=O)c1cc(-c2ccc(Br)cc2)on1
CCOC(=O)c1cccc(NC(=O)C2CCCN(S(=O)(=O)c3ccc4c(c3)oc(=O)n4C)C2)c1 (configuration not stated)
COc1ccc(NC(=O)/C(C#N)=C/c2cc(C)n(-c3ccc(F)cc3)c2C)cc1
Cc1ccc(Cl)cc1NC(=O)Cn1c(=O)n(CCCS(=O)(=O)C2CCCCC2)c(=O)c2ccccc21
Cc1nc2nncn2c(NCc2ccc(Cl)cc2)c1C
Cc1ccc(-n2c(=O)c3c4c(sc3n(Cc3cccc(Cl)c3)c2=O)CCC4)cc1C
COc1ccc(NS(=O)(=O)c2ccc3c(c2)CCN3C(=O)CCC(=O)O)cc1Cl
COc1ccc2cc3cc(C(=O)N4CCN(c5cccc(Cl)c5)CC4)sc3nc2c1

Activity change, negative = inhibition, inactive:
COc1ccc(NC(=O)c2c(-c3ccc(C)cc3)nnc3ccccc23)cc1Cl -0.0584%
COc1ccccc1C(=O)Nc1nnc(SCc2cc(=O)c3cc(Cl)ccc3[nH]2)s1 6.95%
O=C(CNC(=O)c1ccccc1F)OCc1cc(=O)n2ccsc2n1 59.8%
Cc1ccc(CN2CCN(C3CCN(C(=O)c4ccccc4)CC3)C(=O)C2=O)cc1 -2.25%
Cc1nc(-c2ccc(Cl)cc2)sc1CCNC(=O)Cc1ccc(F)cc1 -28.3%
O=S(=O)(c1ccccc1)c1nc(-c2ccc(Cl)cc2Cl)oc1N1CCCCC1 17.8%
Cc1ccc(C(=O)Nc2cccc(O)c2)cc1S(=O)(=O)N1CCCCCC1 -14.8%
COc1cccc(NC(=O)CSc2nc(=O)n(Cc3ccco3)c3c2CCC3)c1 -0.114%
COc1cc(C2C(C(=O)OCC(C)C)=C(C)N=C3SCCC(=O)N32)ccc1OCc1ccccc1 (configuration not stated) 29.2%
Cc1cccc(NC(=O)Cn2nnc(C(=O)Nc3ccc(F)c(Cl)c3)c2N)c1 1.67%
Cc1ccc(Nc2nc3c(S(=O)(=O)c4ccccc4)nnn3c3ccsc23)c(C)c1 -2.44%
Cc1cccc2sc(N(CCCN(C)C)C(=O)c3ccc(Cl)s3)nc12 -10.1%
Cc1sc2ncn(CC(=O)N3CCN(c4ccc(F)cc4)CC3)c(=O)c2c1S(=O)(=O)N1CCCCC1 -6.24%
Cc1ccc(S(=O)(=O)c2cn(CC(=O)Nc3ccc4c(c3)OCO4)c3ccccc3c2=O)cc1 52.2%
CC1=C(C(=O)Nc2ccc(C)cc2C)C(C(C)C)n2nc(SCc3ccccc3Cl)nc2N1 (configuration not stated) 0.923%
N#Cc1c(NC(=O)c2cccc3ccccc23)sc2c1CCCC2 59.3%
O=C(c1ccco1)n1nc(-c2ccccc2)nc1NCc1ccc(F)cc1 -0.582%
COc1cccc2sc(N(Cc3cccnc3)C(=O)Cc3ccccc3)nc12 8.14%
Cc1c(C(=O)Nc2cccc(C(F)(F)F)c2)sc2nc3n(c(=O)c12)CCCC3 -12.7%
Cn1c(C(=O)NCc2ccccc2F)cc2oc3ccccc3c21 5.95%
Cc1ccc(S(=O)(=O)N2CCN(Cc3noc(CCC(=O)N4CCCCC4)n3)CC2)c(C)c1 -3.86%
CC(C)Cn1c(=O)c2sccc2n2c(CCCC(=O)NCCc3ccccc3)nnc12 -1.07%
CC(C)C(=O)N1c2ncnn2C2(CCCCC2)[C@@H]2CCCC[C@@H]21 -8.6%
COc1cc(C(=O)Nc2ccc3[nH]c(=O)sc3c2)cc(OC)c1OC 4.61%
COc1ccc2oc(-c3cccc(NC(=O)c4ccc(C#N)cc4F)c3)nc2c1 12.1%
CCN1CCN(c2oc(-c3ccc(COc4ccc(C)cc4)o3)nc2C#N)CC1 -14.6%
CCCCNc1ncnc2c1nnn2C -3.68%
Cc1ccn2c(Nc3ccc4c(c3)OCO4)c(-c3ccc(N(C)C)cc3)nc2c1 -12.9%
COc1ccccc1CNC(=O)NCc1noc2ccc(C)cc12 -8.36%
CCOc1ccc(NC(=O)CC2C(=O)N(c3ccccc3)C(=O)N2C2CCCCC2)cc1 (configuration not stated) 3.45%
Cc1nc(Nc2ccc(Cl)cc2)cc(-c2ccccc2)n1 -22.4%
COCCCNC(=O)c1sc2nc3n(c(=O)c2c1C)CCC3 0.411%
Cc1nc2ccc(S(=O)(=O)CCC(=O)Nc3ccc(C)c(C)c3)cc2s1 13.9%
CCc1ccc(NC(=O)C(C)n2nnc3sc(-c4ccccc4)cc3c2=O)cc1 (configuration not stated) 0.283%
O=C(Cn1cc(S(=O)(=O)N2CCCC2)c(S(=O)(=O)N2CCCC2)c1)Nc1cccc(F)c1 17.5%
COc1ccccc1CNC(=O)CN1C(=O)COc2ccc(S(=O)(=O)N3CCC(C)CC3)cc21 -14.4%
CCOc1ccc(C2=NC(c3ccc(OC)cc3)=Nc3ccc(Cl)cc3N2)cc1 -19.1%
C=CCC(CC=C)(CNC(=O)C(=O)Nc1cc(C)ccc1OC)c1ccc(OC)c(OC)c1 -3.17%
Cc1csc2nc(COC(=O)c3ccccc3NC(=O)COc3ccccc3F)cc(=O)n12 -7.72%
Cc1ccc(CN(C(=O)COc2ccc(Cl)c(C)c2)C2CCS(=O)(=O)C2)o1 (configuration not stated) -3.24%
Cc1nc2nc(SCC(=O)O)nn2c(C)c1Cc1c(F)cccc1Cl 4.43%
CC(C)C(=O)N(Cc1ccccc1)S(=O)(=O)c1ccc2c(c1)oc(=O)n2C -0.827%
